PubChem BioAssay AID759 (NMMLSC, 2007)
The campaign covered roughly 190,000 compounds. About 270 (0.14%) were called active. Inconclusive results, whose numbers are uncertain, are shown with a selection of clear calls.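 The calls were made as follows: active = GTP binding activity at least 20% away from the 100% baseline, either lowered as inhibitor or raised as activator; inconclusive = flagged as likely green fluorescent, judged across all proteins in the well; inactive = the rest.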

target: GTPase HRas (Homo sapiens) (UniProt P01112); test: HRas wt fluorescent GTP binding changes, either direction – biochemical, wildtype, bead-based flow cytometry, multiplex, primary screen (AID 759); settings: GST-Ras wt beads, Bodipy-FL-GTP binding, at 10 µM, actives lie on both sides;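 also: 0% = unlabeled GTP competition control and 100% = no-compound control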
Sequence of UniProt P01112 (P01112 whole entry, looked up): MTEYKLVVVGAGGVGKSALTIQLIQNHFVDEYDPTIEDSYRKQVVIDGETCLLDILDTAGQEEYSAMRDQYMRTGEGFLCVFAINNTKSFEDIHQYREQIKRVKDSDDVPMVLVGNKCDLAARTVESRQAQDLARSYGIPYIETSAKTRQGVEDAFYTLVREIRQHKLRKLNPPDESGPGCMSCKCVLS

GTP binding activity, active:
O=C(CN1C(=O)C2C3c4ccccc4C(c4ccccc43)C2C1=O)Nc1cccc(C(=O)O)c1 (stereo not drawn) 124% [activator]
O=c1[nH]c(=O)c2nnc(N/N=C\c3ccc(O)cc3)nc2[nH]1 63%
COc1cccc2c(SCC(=O)N/N=C/c3ccc(O)c(O)c3)cc(C)nc12 79%
COc1ccc(-c2nn3c(-c4ccco4)nnc3s2)cc1OC 68%
Cc1ccc(Nc2c(F)c(F)c(F)c(F)c2C(=O)O)c(C)c1 124% [activator]

GTP binding activity, inconclusive:
Cn1c(N/N=C/c2cccs2)nc2c1c(=O)n(Cc1ccccc1)c(=O)n2C 78%
Cc1ccccc1-n1c(=O)cc(N2CCc3ccccc3C2)[nH]c1=O 104%
CCN1/C(=C\C(=S)Nc2ccccc2)Sc2ccccc21 95%
COc1cc(C)nc(SCC(N)=O)n1 91%
CCOC(=O)c1cc2c(ccn2C)n1CC(=O)N1CCCC(C)C1 (stereo not drawn) 94%
Cc1sc2ncnc(OCC(=O)NC(C)C)c2c1C 106%
Cc1cc(Cl)ccc1NC(=S)Nc1ccccn1 98%
Cc1cc(C=O)c(C)n1-c1cc(C(=O)O)cc(C(=O)O)c1 91%
COc1cc(/C=N/NC(=O)c2ccncc2)ccc1OC(=O)c1ccccc1Cl 95%
CCOc1ccccc1CN(CCc1ccc2c(c1)OCO2)Cc1ccccn1 108%
COc1ccc(NC(=S)N(CCN(C)C)C(C)c2ccco2)cc1Cl (stereo not drawn) 127%
COC(=O)CN1C(=O)C2(C(C#N)=C(N)Oc3n[nH]c(-c4cccs4)c32)c2ccccc21 (stereo not drawn) 93%
O=C(NCc1nc2ccccc2[nH]1)c1cccc(S(=O)(=O)N2CCOCC2)c1 106%
O=C(Oc1ccc(OC(=O)c2ccco2)c(S(=O)(=O)c2ccc(Br)cc2)c1)c1ccco1 96%
COc1ccc(CC(=O)NNS(=O)(=O)c2ccccc2)cc1OC 114%
COC(=O)c1cc(OC)c(OC)cc1NC(=S)N1CCN(C/C=C/c2ccccc2)CC1 90%
COC(=O)[C@@H](NC(=O)/C=C/c1ccc(OC)cc1)C(C)C 95%
O=C(Nc1ccc(N2CCOCC2)cc1)Nc1ccc2nc(-c3ccco3)c(-c3ccco3)nc2c1 92%
O=C(c1ccccc1)c1c(O)nc(-c2ccccc2)n(-c2ccccc2)c1=O 92%
O=c1c2cn[nH]c2[nH]c(=S)n1-c1ccccc1 101%
Brc1cccc(-c2nnc3sc(CN4CCCCC4)cn23)c1 106%
CC(=O)Nc1ccc(NC(=O)C2CCCN2C(=O)Nc2ccccc2[N+](=O)[O-])cc1 (stereo not drawn) 97%
CCN(Cc1cnn(C)c1)C(=O)c1ccc(OC2CCN(S(=O)(=O)N(C)C)CC2)cc1 96%
CC(=O)Nc1ccc(S(=O)(=O)NC2=C(N3CCN(c4ccc(F)cc4)CC3)C(=O)c3ccccc3C2=O)cc1 91%
O=c1c2cccc3c2c(nn1-c1ccccc1)-c1ccccc1-3 88%
O=c1[nH]c(=O)c2cc([N+](=O)[O-])cc([N+](=O)[O-])c2[nH]1 86%
CC1C2CC(C(S(=O)(=O)N3CCOCC3)C2=O)C1(C)C (stereo not drawn) 101%
O=C(O)c1ccc(Oc2ccc(C(F)(F)F)cn2)cc1 91%
C/C(CC(=O)Nc1cccc(C(F)(F)F)c1)=N\NC(=O)Cc1ccccc1 96%
CCCCN1CNC(=S)N(c2cc(C)ccc2C)C1 104%
O=C(c1cccc(S(=O)(=O)N2CCOCC2)c1)N1CCCCCC1 102%
COc1ccccc1N1CCN(c2ccc(Cl)nn2)CC1 93%
Cc1c(C)n(CC(O)CN2CCOCC2)c2ccccc12 (stereo not drawn) 102%
CC(C)C(=O)n1nc(-c2cccnc2)nc1NCc1ccc(F)cc1 94%
COCCn1cc(C(=O)NCCCN2CCC(C)CC2)c2c3ccccc3n(C)c2c1=O 111%
Cc1cccc(C(=O)Nc2ccc(CC(=O)O)cc2)c1 96%
CCOC(=O)c1sc2nc(-c3cccnc3)ccc2c1N 92%
O=C(N/N=C/c1ccc(COc2ccc(Br)cc2)o1)c1ccco1 78%
COC(=O)[C@H]1C2CCC(C(=O)OC)(CC2)[C@H]1C(=O)OC 103%
Cc1ccc(N=Nc2c(N)nn3c(N)c(C#N)c(C)nc23)cc1 91%
Cc1noc(NS(=O)(=O)c2ccc(NC(=O)CCN3C(=O)c4ccccc4C3=O)cc2)c1C 91%
COc1cccc(CN2CCC(C(=O)N3CCN(c4ccccc4F)CC3)CC2)c1OC 105%
Cc1cc(C(=O)N/N=C/c2cc(Br)ccc2OC(=O)c2ccc(Br)cc2)n[nH]1 101%
CCOC(=O)c1c(NC(=O)c2cccs2)sc(C(=O)N(C)C)c1C 107%
COc1ccc(N(CC(=O)NN=C2CCCC2)S(=O)(=O)c2ccccc2)cc1 104%
O=C(NCC1CCCO1)c1onc(CSc2ccccc2)c1C(=O)O (stereo not drawn) 96%
COc1cc(-c2csc(CCn3nc(C)cc3C)n2)cc(OC)c1OC 106%
Cn1c(SCc2ccccc2)nnc1-c1ccc2c(c1)OCO2 98%
COc1ccc2cc(C#N)c(SCC(=O)N3CCCC3)nc2c1 96%
COc1ccc2c(Cl)c(-c3nnco3)sc2c1 94%
COc1ccc(OC)c(C(=O)CN2C(=O)NC(C)(c3ccccc3)C2=O)c1 (stereo not drawn) 107%
O=C(COC(=O)c1ccccc1NC(=O)c1ccco1)NC1CCS(=O)(=O)C1 (stereo not drawn) 93%
CN(CC1COc2ccccc2O1)C(=O)c1ccc(N(C)C)cc1 (stereo not drawn) 94%
CCSc1nc2ccc(C)cc2cc1C#N 92%
Cc1noc(/C=C/c2ccc(-c3ccccc3Cl)o2)c1[N+](=O)[O-] 130%

GTP binding activity, inactive:
CCCS(=O)(=O)N1CCN(Cc2ccc3c(c2)c2ccccc2n3CC)CC1 102%
CCOC(=O)C1=C(O)C(=O)N(CCCn2ccnc2)C1c1ccc(OC)cc1 (stereo not drawn) 96%
COC12NC(=O)N(C)C1(OC)C(=O)N(C)C(=O)N2C (stereo not drawn) 99%
CC(=O)Nc1ccc(Nc2nc(Cl)nc(Nc3ccc(NC(C)=O)cc3)n2)cc1 99%
O=C(O)c1cn(CCOc2ccccc2Cl)c2ccccc12 113%
O=C(NC(Cc1ccccc1)C(=O)O)/C(=C/c1ccccc1)NC(=O)c1cccc(Br)c1 (stereo not drawn) 96%
O=[N+]([O-])c1ccc(N/N=C/c2ccc[nH]2)cc1 101%
CC(C)c1nc2sc3c(=O)[nH]c(=S)[nH]c3c2c2c1CCC2 97%
Cc1cccc2sc(NNC(=O)c3cc(=O)c4ccccc4o3)nc12 84%
Cc1ccc(/C=C2\SC(=S)N(C(Cc3ccccc3)C(=O)O)C2=O)cc1 (stereo not drawn) 85%
COc1cccc(C(=O)Nc2cccnc2)c1OC 98%
CCOc1ccc(N2C(=O)CN(CC(=O)OC)C2=S)cc1 98%
CNC(=O)C(=O)N/N=C/c1ccccn1 95%
O=C(COC(=O)Cn1cnc2ccccc2c1=O)Nc1cc(Cl)ccc1[N+](=O)[O-] 88%
O=C(NCc1nnc(SCC(=O)N2CCCc3ccccc32)o1)c1c(F)cccc1Cl 94%
Cc1cc(C)c(S(=O)(=O)N2CCCOC2CNC(=O)C(=O)NCc2ccncc2)c(C)c1 (stereo not drawn) 101%
COc1cc2c(cc1NCc1ccccn1)oc1ccccc12 103%
COc1cc2nc(CN(C)Cc3ccc(F)cc3)[nH]c(=O)c2cc1OC 97%
CN(C)CCCn1c(SCC(=O)N2c3ccccc3Sc3ccccc32)nc2ccccc2c1=O 105%
CCOC(=O)c1cccc(NC(=S)NCc2ccc(C)cc2)c1 99%
CCCCC(=O)Nc1ccc(NC(=S)NC(=O)CCCCl)cc1OC 101%
C/C(=N/NC(=O)c1cccc(N2CCCC2=O)c1)c1ccncc1 104%
OCC1(Cc2ccccc2)CCCN(Cc2ccn[nH]2)C1 (stereo not drawn) 96%
COC(=O)c1cn(NC(=O)Cn2nc([N+](=O)[O-])c(Br)c2C)c(=O)c2ccccc12 90%
COc1ccc(C)cc1NC(=O)c1cc2c(CO)cnc(C)c2oc1=N 98%
Nc1nc2nc(-c3cccs3)cc(C(F)(F)F)n2n1 96%
Cc1cc(C)cc(NC(=O)C(=S)NCc2ccccc2)c1 96%
Cc1ccc(COC(=O)c2nn(C)c(=O)c3ccccc23)cc1 94%
CCOc1ccc(S(=O)(=O)NC2CC2)cc1C(N)=O 99%
O=S(=O)(c1ccc2ncn(O)c2c1)N1CCOCC1 96%
COC(=O)C1=C(C)NC(=O)/C1=C\c1cc(C)n(-c2ccccc2C)c1C 101%
Cc1cc[n+](-c2ccccc2)c2ccccc12 97%
Cc1sc2ncn(CC(=O)N3CCOCC3)c(=O)c2c1-c1ccccc1 98%
